For 32 sequences, binding signal (RPM ratio (pull-down/input)) results are on record in PMC12820563.

This is one part of the list. The list includes weakly bound sequences.

The target of this experiment is T1, MBP-FoxP3dN (UniProt Q99JB6).
T1 sequence: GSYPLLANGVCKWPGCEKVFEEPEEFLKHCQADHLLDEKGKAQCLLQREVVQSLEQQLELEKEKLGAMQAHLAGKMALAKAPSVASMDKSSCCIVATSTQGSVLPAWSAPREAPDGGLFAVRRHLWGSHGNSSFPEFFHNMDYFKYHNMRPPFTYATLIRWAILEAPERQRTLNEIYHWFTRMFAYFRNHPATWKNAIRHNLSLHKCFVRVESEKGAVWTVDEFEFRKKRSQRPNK
Description: PD-seq (MBP pull-down with sequencing). As to conditions: 20 mM Tris-HCl pH 7.5, 100 mM NaCl, 1.5 mM MgCl2, 0.4 uM protein, 0.1 uM dsDNA library, 30 min, room temperature, amylose pull-down; high values mean tight binding; double strand, one strand shown.
For “GATGATTGTTCTCCCAGCTGATGAATTGCTATTTTCGAGTAAACAAATTTTCCTAATCTTTCTGTTCAAGCGCCATCTAC”, the binding signal (RPM ratio (pull-down/input)) came out at 1.47.
Under “GATGATTGTTCTCCCAGCTGATGAATTTCGGCTCTCGAGTAAACAAATTTTCCTAATCTTTCTGTTCAAGCGCCATCTAC” stands 0.445.
Under “GATGATTGTTCTCCCAGCTGATGAATTACTCCGATCGAGTAAACAAATTTTCCTAATCTTTCTGTTCAAGCGCCATCTAC” stands 0.187; under “GATGATTGTTCTCCCAGCTGATGAATTCCCAGTATCGAGTAAACAAATTTTCCTAATCTTTCTGTTCAAGCGCCATCTAC”, 0.359; under “GATGATTGTTCTCCCAGCTGATGAATTTATATAATCGAGTAAACAAATTTTCCTAATCTTTCTGTTCAAGCGCCATCTAC”, 0.88.
Under “GATGATTGTTCTCCCAGCTGATGAATTAGTTAGCTCGAGTAAACAAATTTTCCTAATCTTTCTGTTCAAGCGCCATCTAC” stands 2.17; under “GATGATTGTTCTCCCAGCTGATGAATTCGCCGGGTCGAGTAAACAAATTTTCCTAATCTTTCTGTTCAAGCGCCATCTAC”, 0.219.
For the sequence “GATGATTGTTCTCCCAGCTGATGAATTAGATGAATCGAGTAAACAAATTTTCCTAATCTTTCTGTTCAAGCGCCATCTAC”, the binding signal (RPM ratio (pull-down/input)) is 0.343.
In the case of “GATGATTGTTCTCCCAGCTGATGAATTAATCCATTCGAGTAAACAAATTTTCCTAATCTTTCTGTTCAAGCGCCATCTAC” it was 0.276; in that of “GATGATTGTTCTCCCAGCTGATGAATTCTCCCGATCGAGTAAACAAATTTTCCTAATCTTTCTGTTCAAGCGCCATCTAC”, 0.194; in that of “GATGATTGTTCTCCCAGCTGATGAATTAATTGGATCGAGTAAACAAATTTTCCTAATCTTTCTGTTCAAGCGCCATCTAC”, 0.424.
Under “GATGATTGTTCTCCCAGCTGATGAATTGATTGGGTCGAGTAAACAAATTTTCCTAATCTTTCTGTTCAAGCGCCATCTAC” stands 1.38.
Under “GATGATTGTTCTCCCAGCTGATGAATTTCGTCAGTCGAGTAAACAAATTTTCCTAATCTTTCTGTTCAAGCGCCATCTAC” stands 0.401; under “GATGATTGTTCTCCCAGCTGATGAATTTAAGGTCTCGAGTAAACAAATTTTCCTAATCTTTCTGTTCAAGCGCCATCTAC”, 0.529; under “GATGATTGTTCTCCCAGCTGATGAATTATATTCTTCGAGTAAACAAATTTTCCTAATCTTTCTGTTCAAGCGCCATCTAC”, 0.495.
Consider “GATGATTGTTCTCCCAGCTGATGAATTAAAGCCATCGAGTAAACAAATTTTCCTAATCTTTCTGTTCAAGCGCCATCTAC”, for which the binding signal (RPM ratio (pull-down/input)) amounted to 1.45.
In the case of “GATGATTGTTCTCCCAGCTGATGAATTGCACTCGTCGAGTAAACAAATTTTCCTAATCTTTCTGTTCAAGCGCCATCTAC” it was 1.01; in that of “GATGATTGTTCTCCCAGCTGATGAATTGAGGTGTTCGAGTAAACAAATTTTCCTAATCTTTCTGTTCAAGCGCCATCTAC”, 0.749.
Consider “GATGATTGTTCTCCCAGCTGATGAATTTGTTCCTTCGAGTAAACAAATTTTCCTAATCTTTCTGTTCAAGCGCCATCTAC”, for which the binding signal (RPM ratio (pull-down/input)) was 2.94.
Under “GATGATTGTTCTCCCAGCTGATGAATTCGACGCGTCGAGTAAACAAATTTTCCTAATCTTTCTGTTCAAGCGCCATCTAC” stands 0.663; under “GATGATTGTTCTCCCAGCTGATGAATTATGAATGTCGAGTAAACAAATTTTCCTAATCTTTCTGTTCAAGCGCCATCTAC”, 1.04.
Under “GATGATTGTTCTCCCAGCTGATGAATTGGTTAACTCGAGTAAACAAATTTTCCTAATCTTTCTGTTCAAGCGCCATCTAC” stands 0.469; under “GATGATTGTTCTCCCAGCTGATGAATTTGGCGGTTCGAGTAAACAAATTTTCCTAATCTTTCTGTTCAAGCGCCATCTAC”, 0.63; under “GATGATTGTTCTCCCAGCTGATGAATTCAGCTAATCGAGTAAACAAATTTTCCTAATCTTTCTGTTCAAGCGCCATCTAC”, 0.289.
For the sequence “GATGATTGTTCTCCCAGCTGATGAATTACGACATTCGAGTAAACAAATTTTCCTAATCTTTCTGTTCAAGCGCCATCTAC”, the binding signal (RPM ratio (pull-down/input)) worked out at 1.37.
Under “GATGATTGTTCTCCCAGCTGATGAATTTTATTAGTCGAGTAAACAAATTTTCCTAATCTTTCTGTTCAAGCGCCATCTAC” stands 4.27; under “GATGATTGTTCTCCCAGCTGATGAATTGTGTCTATCGAGTAAACAAATTTTCCTAATCTTTCTGTTCAAGCGCCATCTAC”, 3.06.
In the case of “GATGATTGTTCTCCCAGCTGATGAATTAGTTGTGTCGAGTAAACAAATTTTCCTAATCTTTCTGTTCAAGCGCCATCTAC” it was 6.21.
In the case of “GATGATTGTTCTCCCAGCTGATGAATTGCCTTACTCGAGTAAACAAATTTTCCTAATCTTTCTGTTCAAGCGCCATCTAC” it was 0.701.
Take “GATGATTGTTCTCCCAGCTGATGAATTTAACACTTCGAGTAAACAAATTTTCCTAATCTTTCTGTTCAAGCGCCATCTAC”: the binding signal (RPM ratio (pull-down/input)) worked out at 0.781.
Under “GATGATTGTTCTCCCAGCTGATGAATTTACTTTTTCGAGTAAACAAATTTTCCTAATCTTTCTGTTCAAGCGCCATCTAC” stands 1.02.
Regarding “GATGATTGTTCTCCCAGCTGATGAATTCGGTGGATCGAGTAAACAAATTTTCCTAATCTTTCTGTTCAAGCGCCATCTAC”, the binding signal (RPM ratio (pull-down/input)) was 0.506.
